{
  "source": "paper PMC9911399",
  "about": "“Two distinct binding modes provide the RNA-binding protein RbFox with extraordinary sequence specificity”",
  "binders": {"B1": {"name": "UCCUCUC (DNA:RNA)", "RNA": "GGGAGACCGGAAUUCAGAUUGUCCUCCUCUCUUAAAUCCCGUCGUAGCCACCA", "DNA 1": "CAATCTGAATTCCGGTCTCCC", "DNA 2": "TGGTGGCTACGACGGGATT"}, "B2": {"name": "GUCGGUU (DNA:RNA)", "RNA": "B1 RNA with U25G, C26U, U28G, C29G, C31U", "DNA 1": "CAATCTGAATTCCGGTCTCCC", "DNA 2": "TGGTGGCTACGACGGGATT"}, "B3": {"name": "UAAGAUC (DNA:RNA)", "RNA": "B1 RNA with C26A, C27A, U28G, C29A", "DNA 1": "CAATCTGAATTCCGGTCTCCC", "DNA 2": "TGGTGGCTACGACGGGATT"}, "B4": {"name": "UCAUGAU (DNA:RNA)", "RNA": "B1 RNA with C27A, C29G, U30A, C31U", "DNA 1": "CAATCTGAATTCCGGTCTCCC", "DNA 2": "TGGTGGCTACGACGGGATT"}, "B5": {"name": "UCCAUUC (DNA:RNA)", "RNA": "B1 RNA with U28A, C29U", "DNA 1": "CAATCTGAATTCCGGTCTCCC", "DNA 2": "TGGTGGCTACGACGGGATT"}, "B6": {"name": "UAUGGCU (DNA:RNA)", "RNA": "B1 RNA with C26A, C27U, U28G, C29G, U30C, C31U", "DNA 1": "CAATCTGAATTCCGGTCTCCC", "DNA 2": "TGGTGGCTACGACGGGATT"}, "B7": {"name": "CUCUGUA (DNA:RNA)", "RNA": "B1 RNA with U25C, C26U, C29G, C31A", "DNA 1": "CAATCTGAATTCCGGTCTCCC", "DNA 2": "TGGTGGCTACGACGGGATT"}, "B8": {"name": "GGCCGGG (DNA:RNA)", "RNA": "B1 RNA with U25G, C26G, U28C, C29G, U30G, C31G", "DNA 1": "CAATCTGAATTCCGGTCTCCC", "DNA 2": "TGGTGGCTACGACGGGATT"}, "B9": {"name": "CACUUCC (DNA:RNA)", "RNA": "B1 RNA with U25C, C26A, C29U, U30C", "DNA 1": "CAATCTGAATTCCGGTCTCCC", "DNA 2": "TGGTGGCTACGACGGGATT"}},
  "note": "Where a chain is given by its changes, count along the chain named. The list shows a part of the results.",
  "data": [
    {"target": "T1, RBFOX1 RRM RbFoxmut (Fox-RRM*) (Homo sapiens, UniProt Q9NWB1 109-208, R118D;E147R;N151S;E152T)", "T1 sequence": "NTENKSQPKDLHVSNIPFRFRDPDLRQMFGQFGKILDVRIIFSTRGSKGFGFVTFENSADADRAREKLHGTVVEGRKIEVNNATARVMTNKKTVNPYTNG", "experiment": "EMSA; HiTS-Eq, 1 nM pool, 10 min; buffer printed only for the single-RNA assays: 10 mM Tris pH 7.5, 150 mM NaCl, 3.4 mM EDTA, 0.001% NP-40, 30 C", "settings": "tags: His6 N-terminal (pET28a); label: 5' 32P", "summary_of_the_method": "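A pool of RNA with 7 randomized nucleotides, 5′-radiolabelled and with DNA-annealed flanks, was equilibrated at 1 nM for 10 min in 50 µL with purified RbFox RRM, wild type or mutant, across increasing protein concentrations. Free RNA was separated by 8% native PAGE, excised, reverse-transcribed, barcoded by PCR and sequenced. Relative association constants were obtained from read-count changes of each RNA species versus the control reaction and normalised to the cognate motif.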", "values": [
      {"binder": "B1", "binding signal": "0.0516 KA relative to UGCAUGU"},
      {"binder": "B2", "binding signal": "0.0998 KA relative to UGCAUGU"},
      {"binder": "B3", "binding signal": "0.0478 KA relative to UGCAUGU"},
      {"binder": "B4", "binding signal": "0.0721 KA relative to UGCAUGU"},
      {"binder": "B5", "binding signal": "0.0723 KA relative to UGCAUGU"},
      {"binder": "B6", "binding signal": "0.102 KA relative to UGCAUGU"},
      {"binder": "B7", "binding signal": "0.229 KA relative to UGCAUGU"},
      {"binder": "B8", "binding signal": "0.0661 KA relative to UGCAUGU"},
      {"binder": "B9", "binding signal": "0.0925 KA relative to UGCAUGU"}
    ]}
  ]
}
